Experimental data from the RNAGym collection of RNA variant scans (doi:10.1093/nar/gkz1192).
Read counts are not given, so values of variants with three or more changes are uncertain.

B1: CPEB3 Ribozyme (parent)
chain: UAACAGGGGGCCACAGCAGAAGCGUUCACGUCGCAGCCCCUGUCAGAUUCUGGUGAAUCUGCGAAUUCUGCUGUAUAUCUC

Variants of: B1
Assay: self-cleavage, relative activity (ratio to wild type); higher = more cleavage; in vitro, sequencing
Summary of the method: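 CPEB3 self-cleaving ribozyme mutant libraries were made by rounds of error-prone PCR, barcoded, and transcribed in vitro with T7 RNA polymerase for 5 hours at 37°C. Cleavage occurred during transcription and a 15 min DNase I step before EDTA stop. RNAs were reverse transcribed with template switching and Illumina-sequenced, with DNA sequencing mapping barcodes to variants. Relative activity is the variant's cleaved/total read fraction divided by wild type's (minimum 5 reads), averaged across three batches.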
UAGCAGGGGGCCACAGCAGAAGCGAUCACGUCGCAGCCCCUGACAGAUUCUGGUGAAUCUGCUAAUUCUGCUGUAUAUCUC [A3G U25A U43A G63U] showed a self-cleavage of 0.29. UAGCAGGGGGCCACAGCAGAAGCGAUCACGUCGCAGCCCCUGUCAGAUUCAGGUGAAUCUGCAGAUUCUGCGGUAGAUCUC [A3G U25A U51A G63A A64G U72G U76G] gave a self-cleavage of 0.17. Work on UAGCAGGGGGCCACAGCAGAAGCGAUCACGUCGCAGCCCCUGUCAGAUUCUGGUGAAUCUGCGAAUUCUGCUGUAUACCUC [A3G U25A U78C] yielded a self-cleavage of 0.61. UAGCAGGGGGCCACAGCAGAAGCGCUCGCGUCGCAGCCCCUGUCAGAUUCUGGUGAAUCUGCGAAUUCUGCUGUAUGUCUC [A3G U25C A28G A77G] gave a self-cleavage of 0.58. Work on UAGCAGGGGGCCACAGCAGAAGCGCUCAAGUCGCAGCCCCUGUCAGAUUCUGGUGAAUCUGCGAAUUCUGCUGUAUAUCUC [A3G U25C C29A] yielded a self-cleavage of 0.53. Work on UAGCAGGGGGCCACAGCAGAAGCGCUCAGGUCGCAGCCCCUGUCAGAUUCUGGUGAAUCUGCGAAUUCUGCUGUGUAUCUC [A3G U25C C29G A75G] yielded a self-cleavage of 0.12. With UAGCAGGGGGCCACAGCAGAAGCGCUCACGUCGGAGCCCCUGUCAGAUUCUGGUGAAUCUGCGAAUUCUGCUGUAUAUCUC [A3G U25C C34G] the self-cleavage was 0.41. UAGCAGGGGGCCACAGCAGAAGCGCUCACGUCGCAGCCCCUGUCAGAUUCUCGUGAAUCCGCGAAUUCUGCUGUAUAUCUC [A3G U25C G52C U60C] showed a self-cleavage of 0.23. With UAGCAGGGGGCCACAGCAGAAGCGCCCUCGUCGCAGCCCCUGUCAGAUUCUGGUGAAUCUGUGAAUUCGGCUGUAUAUCUC [A3G U25C U26C A28U C62U U69G] the self-cleavage was 0.06. For UAGCAGGGGGCCACAGCAGAAGCGCCCACGUCGCAGCCCCUGUCAGGUUCUGGUGAAUCUGCGUAUUCGGCUGUAUAUCUC [A3G U25C U26C A47G A64U U69G], the self-cleavage was 0.34. UAGCAGGGGGCCACAGCAGAAGCGCCCACGUCGCAGCCUCUGUCAGAUUCUGGUAAAUCUGCGAAUUCUGCUGCAUAUCUC [A3G U25C U26C C39U G55A U74C] gave a self-cleavage of 0.09. With UAGCAGGGGGCCACAGCAGAAGCGCUCACGCCGCAGCCCCUGUCAGAUUCUGGUGGAUCUGCGAAUUCUGCUGUAUAUCUC [A3G U25C U31C A56G] the self-cleavage was 0.48. UAGCAGGGGGCCACAGCAGAAGCGCUCACGUCGCAGCCCCUGUCAGAUUCUGGCGAAUCUGCGAAUUCUGCUGUAUAUCUC [A3G U25C U54C] gave a self-cleavage of 0.46. UAGCAGGGGGCCACAGCAGAAGCGCUCACGUCGCAGCCCCUGUCAGAUUCUGGUGAACCUGCGAAUUCUGCUGUAUACCUC [A3G U25C U58C U78C] gave a self-cleavage of 0.1. UAGCAGGGGGCCACAGCAGAAGCGCUCACGUCGCAGCCCCUGUCAGAUUCUGGUGAAUCCGCGAAUUCUGCUGUAUAUCUC [A3G U25C U60C] showed a self-cleavage of 0.42. In the case of UAGCAGGGGGCCACAGCAGAAGCGCUCACGUCGCAGCCCCUGUCAGAUUCUGGUGAAUCUGCGAAGUCUGCCGUAUAACUC [A3G U25C U66G U72C U78A], the self-cleavage is reported as 0. For UAGCAGGGGGCCACAGCAGAAGCGCUCACGUCGCAGCCCCUGUCAGAUUCUGGUGAAUCUGCGAAUUCUGCCGUAUAUCUC [A3G U25C U72C], the self-cleavage was 0.25. With UAGCAGGGGGCCACAGCAGAAGCGGUCACGUCGCAGCCCCUGCCAGAUUCUGGUGAAUCUGCGAAUUCUGCUGUAUAUCUC [A3G U25G U43C] the self-cleavage was 0.08. For UAGCAGGGGGCCACAGCAGAAGCGUACACGUCGCUGCCCCUGUCAGAUUCUGGUGGAUCUGGGAAUUCCGCUGUAUAUCUC [A3G U26A A35U A56G C62G U69C], the self-cleavage was 0.25. UAGCAGGGGGCCACAGCAGAAGCGUACACGUUGCAGCCCCUGUCAGAUUCUGGUGAAUCUGCGAAUUCUGCUGUAUAUCUC [A3G U26A C32U] showed a self-cleavage of 0.14. Work on UAGCAGGGGGCCACAGCAGAAGCGUACACGUCGCAGCCCCUGUCAGAUUGUGGUGAGUCUGCGAAUUCUGCUGUAUAUCUC [A3G U26A C50G A57G] yielded a self-cleavage of 0.39. Work on UAGCAGGGGGCCACAGCAGAAGCGUACACAUCGCAGCCCCUGUCAGAUUCUGGUGAACCUGCGAAUUCUGCUGUAUACCUC [A3G U26A G30A U58C U78C] yielded a self-cleavage of 0.09. UAGCAGGGGGCCACAGCAGAAGCGUACACGUCGCAGCCCCUGUCAGACUCUGGUGAAUCUGCGAAUUCUGCUGUAUAUCUC [A3G U26A U48C] gave a self-cleavage of 0.37. Work on UAGCAGGGGGCCACAGCAGAAGCGUACACGUCGCAGCCCCUGUCAGAUUCCGGUGAAUCUGCGAAUUCUGCUGUAUAUCUC [A3G U26A U51C] yielded a self-cleavage of 0.59. UAGCAGGGGGCCACAGCAGAAGCGUCCGCGUCGCAGCCCCCGUCAGAUUCUGGUGAAUCUGCGAAUUCUGCUGUAUAUCUC [A3G U26C A28G U41C] gave a self-cleavage of 0.4. For UAGCAGGGGGCCACAGCAGAAGCGUCCACGUCGCGGCCCCUGUCAGAUUGUGGUGAAUCUGCGAAUUCUGCUGUAUAUCUC [A3G U26C A35G C50G], the self-cleavage was 0.94. UAGCAGGGGGCCACAGCAGAAGCGUCCACGUCGCAGCCCCUGUCGGAUUCAGGUGAAUCUGCGAAUUCUGCUGUAUAUCUC [A3G U26C A45G U51A] showed a self-cleavage of 0.36. UAGCAGGGGGCCACAGCAGAAGCGUCCACGUCGCAGCCCCUGUCUGAUUCUGGUGAAUCUGCGAAUUCUGCUGAAUAUCCC [A3G U26C A45U U74A U80C] gave a self-cleavage of 0.21. In the case of UAGCAGGGGGCCACAGCAGAAGCGUCCACGUCGCAGCCCCUGUCAGAUUCUGGUGAAUCUGCGGAUUCUGCUGUAUAUCUC [A3G U26C A64G], the self-cleavage is reported as 0.72. For UAGCAGGGGGCCACAGCAGAAGCGUCCACGUCGCAGCCCCUGUCAGAUUCUGGUGAAUCUGCGUAUUCUGCUGUAUAUCAC [A3G U26C A64U U80A], the self-cleavage was 0. With UAGCAGGGGGCCACAGCAGAAGCGUCCAUGUCGCAGCCCCUGUCAGAUUCUGGUGGAUCUGCGAAUUCUGCUGUAUAUCUC [A3G U26C C29U A56G] the self-cleavage was 0.32. For UAGCAGGGGGCCACAGCAGAAGCGUCCACGUCGCAGCCCUUGUCAGGUUCUGGUGUAUCUGCGAAUUCUGCUGUAUAUCUC [A3G U26C C40U A47G A56U], the self-cleavage was 0.13. For UAGCAGGGGGCCACAGCAGAAGCGUCCACGACGCGGCCCCUGUCAGAUUCUCGUGAAUCCGCGAAUUCUGCUGUAUAUCAC [A3G U26C U31A A35G G52C U60C U80A], the self-cleavage was 0.18. For UAGCAGGGGGCCACAGCAGAAGCGUCCACGGCGCAGCCCCUGACAGAUUCUGGUGAAUCUGCGAUUUCUGCUGUAUAUCUC [A3G U26C U31G U43A A65U], the self-cleavage was 0.48.
